Measurements from PubChem BioAssay AID360 (National Center for Advancing Translational Sciences (NCATS), 2006).
Among all 48,000 compounds or so, about 550 (1.1%) were called active. Roughly 4% stayed inconclusive and do not appear here. Rule as the data show it: active = potency below about 15 µM; inconclusive = mostly about 16 µM to 33 µM; inactive = weaker than that. This is one part of the list.
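Also: the screen sought inhibitors.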
Potency is read from the fitted curve at half-maximal effect.

The molecules below were run against Lysosomal acid glucosylceramidase (Homo sapiens) (UniProt P04062) (assay: Glucocerebrosidase). Settings: purified enzyme, resorufin glucoside fluorescence (screen aimed at inhibitors), 20 min; series mostly up to 77 µM.
Chain of UniProt P04062 (P04062 whole entry, looked up): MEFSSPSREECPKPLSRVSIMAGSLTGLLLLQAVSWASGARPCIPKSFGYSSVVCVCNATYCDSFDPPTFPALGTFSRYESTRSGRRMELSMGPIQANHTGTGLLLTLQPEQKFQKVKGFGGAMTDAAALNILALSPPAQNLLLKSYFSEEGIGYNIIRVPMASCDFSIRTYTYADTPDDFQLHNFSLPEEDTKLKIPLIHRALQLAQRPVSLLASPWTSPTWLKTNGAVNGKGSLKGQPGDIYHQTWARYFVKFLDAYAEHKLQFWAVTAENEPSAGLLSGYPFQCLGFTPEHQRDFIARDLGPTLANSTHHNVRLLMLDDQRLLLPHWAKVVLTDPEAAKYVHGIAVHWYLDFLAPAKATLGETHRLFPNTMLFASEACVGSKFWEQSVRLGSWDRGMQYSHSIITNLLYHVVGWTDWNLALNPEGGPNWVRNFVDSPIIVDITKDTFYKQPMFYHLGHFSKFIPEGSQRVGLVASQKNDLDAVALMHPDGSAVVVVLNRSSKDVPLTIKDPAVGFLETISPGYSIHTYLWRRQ
Method in brief: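 Compounds titrated against 0.2 nM normal enzyme, 30 uM resorufin beta-D-glucopyranoside substrate, citrate/phosphate buffer with taurocholate and tween-20, pH 5.9. Reaction ran 20 min at room temperature; fluorescence (Ex 548/Em 600) gave AC50.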
For Cn1c(CCNC(=O)OC(C)(C)C)n[nH]c1=S, the Potency was inactive: > 76.9 µM. With COc1ccc(OC)c2[nH]c(=O)c(CCNC(=O)c3ccc(S(=O)(=O)N4CCCCC4)cc3)cc12 the Potency was inactive: > 76.9 µM. In the case of CC(C)(C)NC(=O)C(c1ccccc1)N(C(=O)c1csnn1)C1CC1 (configuration not stated), the Potency is reported as inactive: > 76.9 µM. COc1ccc(-n2nc3ccc(NS(C)(=O)=O)cc3n2)cc1Cl was tested, and the Potency was “inactive”. In the case of C/C(N)=C(/C#N)C(=O)COC(=O)COc1ccc(Cl)cc1, the Potency is reported as inactive: > 76.9 µM. For Cn1c(=O)c2cn(-c3cccc4ccccc34)cc2n(C)c1=O, the Potency was inactive: > 76.9 µM. For CCOc1ccc(C2C=C(c3ccc(C)cc3)Nc3nnnn32)cc1 (configuration not stated), the Potency was “inactive”. For O=C1CNCc2[nH]c3ccccc3c2N1c1ccccc1, the Potency was “inactive”. With Cc1cc(SCC(=O)Nc2ccccc2)nc(C)n1 the Potency was inactive: > 76.9 µM. CCOc1ncccc1C(=O)OCc1ccc(C(=O)OC)o1 was tested, and the Potency was inactive: > 76.9 µM. For C=CCn1c(SCC(=O)Nc2c(C)nn(Cc3ccccc3)c2C)nnc1C(O)c1ccccc1 (configuration not stated), the Potency was inactive: > 76.9 µM. In the case of COc1ccc(CN2CC(C(=O)NCc3ccccn3)CC2=O)cc1 (configuration not stated), the Potency is reported as inactive: > 76.9 µM. Cc1ccc(C(=O)NCCCNCCCN(C)C)cn1 was tested, and the Potency was inactive: > 76.9 µM. In the case of C=CCSc1nnc(NC(=O)CSc2nnc(C)s2)s1, the Potency is reported as inactive: > 76.9 µM. COc1ccc(NC(=O)N2CCCC(c3nc(-c4ccc(C(C)C)cc4)no3)C2)cc1 (configuration not stated) was tested, and the Potency was “inactive”. In the case of CCOC(=O)N1CCN(C(=O)CCn2nc(-c3ccccc3)ccc2=O)CC1, the Potency is reported as inactive: > 76.9 µM. With COc1ccc(-n2nc(C(=O)NCC(=O)NCc3ccco3)c3ccccc3c2=O)cc1Cl the Potency was inactive: > 76.9 µM. In the case of COC(=O)c1ccc(-c2ccc(C(=O)N3CCCN(C)CC3)cc2)cc1, the Potency is reported as inactive: > 76.9 µM. For C=CCNC(=O)N[C@@H](CCSC)C(=O)OC, the Potency was inactive: > 76.9 µM. In the case of COc1cccc(CNC(=O)CCn2c(=O)oc3ccccc32)c1, the Potency is reported as inactive: > 76.9 µM. Cc1ccc(NC(=O)CS(=O)CC(=O)NCC2OCCc3ccccc32)c(C)c1 (configuration not stated) was tested, and the Potency was inactive: > 76.9 µM. For CCOC(=O)CN1C(=O)c2ccccc2C1=O, the Potency was inactive: > 76.9 µM. For O=C1CCCc2nc(N3CCN(Cc4ccccc4)CC3)ncc21, the Potency was inactive: > 76.9 µM. With COc1ccc(C(c2nnnn2Cc2ccc(F)cc2)N2CCN(c3ccc(OC)cc3)CC2)cc1 (configuration not stated) the Potency was inactive: > 76.9 µM. In the case of Cc1cc(Nc2ncc(Cl)cc2Cl)n(-c2ccccn2)n1, the Potency is reported as inactive: > 76.9 µM. With Cn1c(SCc2ccccc2F)nc2cccnc21 the Potency was inactive: > 76.9 µM. In the case of COc1cccc2cc(-c3nnc(SCC(=O)Nc4cc(C(F)(F)F)ccc4Cl)n3N)oc12, the Potency is reported as inactive: > 76.9 µM. For COC(=O)c1cc(OC)c(OC)cc1NC(=O)Nc1ccccc1OC, the Potency was inactive: > 76.9 µM. With Cc1cc(NC(=O)C2CCCCC2C(=O)O)no1 (configuration not stated) the Potency was inactive: > 76.9 µM. With CC(=NCc1ccco1)c1c(C)[nH]n(-c2nc3ccccc3s2)c1=O the Potency was inactive: > 76.9 µM. With O=S(=O)(Cc1ccccc1Cl)N1CCN(Cc2ccc3c(c2)OCO3)CC1 the Potency was inactive: > 76.9 µM. O=C(CSc1nnc(-c2ccoc2)o1)N1CCOCC1 was tested, and the Potency was inactive: > 76.9 µM. With CCCC(=O)Nc1ccc(NC(=O)C2CC2)cn1 the Potency was inactive: > 76.9 µM. For CCCCOCCCNC(=O)N[C@@H](CCSC)C(=O)OC, the Potency was inactive: > 76.9 µM. Cn1c(NCc2c[nH]c3ccccc23)nc2ccccc21 was tested, and the Potency was inactive: > 76.9 µM. In the case of COC(=O)Cc1cc(=O)n2[nH]c(C)nc2n1, the Potency is reported as inactive: > 76.9 µM. With O=C(CN(C(=O)CNS(=O)(=O)c1ccccc1)C1CCCC1)NCc1ccco1 the Potency was inactive: > 76.9 µM. In the case of COCCOC(=O)C1=C(C)N(Cc2ccccc2)C(=O)NC1c1cccc(OC)c1OC (configuration not stated), the Potency is reported as inactive: > 76.9 µM. For CCCCCCn1c(N2CCN(c3cccc(Cl)c3)CC2)nc2c1c(=O)[nH]c(=O)n2C, the Potency was inactive: > 76.9 µM. For Cc1nc2nc[nH]n2c(=O)c1NC(=O)c1c(-c2ccccc2Cl)noc1C, the Potency was inactive: > 76.9 µM. For Nn1c(SCC(=O)Nc2ccc(F)cc2)nnc1-c1ccccn1, the Potency was inactive: > 76.9 µM. O=C(CN1C(=O)c2ccccc2S1(=O)=O)Nc1ccccc1C(=O)NCc1ccco1 was tested, and the Potency was inactive: > 76.9 µM. In the case of CC(NC(=O)CN1CCC(C(N)=O)CC1)c1ccccc1 (configuration not stated), the Potency is reported as inactive: > 76.9 µM. In the case of COc1ccc(NC(C)=O)cc1NC(=O)CSc1nc2ncccc2[nH]1, the Potency is reported as inactive: > 76.9 µM. Cc1cc(NC(=O)c2ccco2)ncc1NC(=O)CCc1ccccc1 was tested, and the Potency was inactive: > 76.9 µM. With CCN(CC)c1ncccc1C(=O)NCc1cccs1 the Potency was inactive: > 76.9 µM. O=C(c1cc2cc(Cl)ccc2oc1=O)N1CCCC1 was tested, and the Potency was inactive: > 76.9 µM. For COc1ccc(CCN(C)C(=O)CN2C(=O)c3ccccc3S2(=O)=O)cc1OC, the Potency was inactive: > 76.9 µM. In the case of CCOC(=O)c1cnn(CCOC(=O)c2cccs2)c1NC(=O)c1cccs1, the Potency is reported as inactive: > 76.9 µM. In the case of Nc1cc(=O)[nH]c(SCC(=O)NCC2CCCO2)n1 (configuration not stated), the Potency is reported as inactive: > 76.9 µM. With COc1ccc(-n2ncc3c(N4CCc5ccccc54)ncnc32)cc1 the Potency was inactive: > 76.9 µM. With CCCCNC(=O)CCCn1c(=O)[nH]c2ccc(Br)cc2c1=O the Potency was “inactive”. For COc1ccc(-n2nnnc2SCC(=O)Nc2ccc3c(c2)OCCO3)cc1OC, the Potency was inactive: > 76.9 µM. With Brc1ccccc1-c1nnc(CSc2nncn2-c2ccccc2)o1 the Potency was inactive: > 76.9 µM. In the case of CCOc1ccccc1NC(=O)CCC(=O)O, the Potency is reported as inactive: > 76.9 µM. In the case of CCn1nnnc1SCC(=O)Nc1cccc(C)n1, the Potency is reported as inactive: > 76.9 µM. With CCC(=O)Nc1c(-c2ccc(OC)cc2)c(=O)c2ccccc2n1C the Potency was inactive: > 76.9 µM. In the case of CC(=O)N1CCCc2cc(S(=O)(=O)N3CCc4ccccc4C3)ccc21, the Potency is reported as inactive: > 76.9 µM. Cc1ccc(NCc2nnc(SCC(N)=O)n2CCc2ccccc2)cc1 was tested, and the Potency was inactive: > 76.9 µM. In the case of OCCNc1ncnc2c1ncn2Cc1ccccc1, the Potency is reported as inactive: > 76.9 µM. CCc1cc2cc(C)cc(C)c2nc1SCC(=O)N1CCN(C(=O)c2ccco2)CC1 was tested, and the Potency was inactive: > 76.9 µM. CCNc1cccc2c1C(=O)N(C)C2=O was tested, and the Potency was inactive: > 76.9 µM. With CCOC(=O)C1(CC)CC(CSc2nc3ccccc3[nH]2)OC1=O (configuration not stated) the Potency was inactive: > 76.9 µM. With CC1CCCN(c2nc3c(c(=O)n(C)c(=O)n3C)n2CCSc2nc3ccccc3s2)C1 (configuration not stated) the Potency was inactive: > 76.9 µM. With COC(=O)c1nnn(CC(=O)Nc2cccc(OC)c2)c1C(=O)OC the Potency was inactive: > 76.9 µM. COC(=O)c1ccc(OCC2c3cc(OC)c(OC)cc3CCN2C(=O)c2ccco2)cc1 (configuration not stated) was tested, and the Potency was inactive: > 76.9 µM. CC(C)c1nc(-c2c(N)n(C)c(=O)n(C)c2=O)sc1C(=O)C(C)(C)C was tested, and the Potency was inactive: > 76.9 µM. CCOC(=O)c1cccnc1SCC(=O)N(C)c1ccccc1 was tested, and the Potency was inactive: > 76.9 µM. In the case of CN(C)C(=O)CSc1nc2ccccc2c(=O)[nH]1, the Potency is reported as inactive: > 76.9 µM. COc1ccccc1N1CCN(C(=O)CSc2nnc(NC(=O)C3CC3)s2)CC1 was tested, and the Potency was inactive: > 76.9 µM. For Cc1ccc(N2CCN(c3ccc(C)cc3)C2c2ccccn2)cc1, the Potency was inactive: > 76.9 µM. C=CCN1C(=Nc2cccnc2)SCC1(O)c1ccc(C)cc1 (configuration not stated) was tested, and the Potency was inactive: > 76.9 µM. CC(C)n1c(-c2cccnc2)nc2cnccc21 was tested, and the Potency was inactive: > 76.9 µM. In the case of COc1ccc(C(=O)Nc2nnc(C(F)(F)F)s2)cc1, the Potency is reported as active: 3.35 µM. For Cc1ccc(N2CCCCn3c2nc2c3c(=O)n(CC(=O)O)c(=O)n2C)cc1, the Potency was inactive: > 76.9 µM. In the case of CCOC(=O)c1c(NC(=O)CSc2nnc(CNc3ccc(OC)cc3)n2C)sc(C)c1C, the Potency is reported as “inactive”. In the case of CCN(CC)C(=O)CSc1nnc(-c2ccccc2)n1N, the Potency is reported as inactive: > 76.9 µM. For c1ccc(Cc2nnc3sc(-c4ccccn4)nn23)cc1, the Potency was inactive: > 76.9 µM. With CC1(C)CC(CCC(=O)Nc2ccccc2Cl)C(=O)O1 (configuration not stated) the Potency was inactive: > 76.9 µM. In the case of COC(=O)c1ccc2c(c1)N(Cc1nc(-c3cccc(Cl)c3)oc1C)C(=O)C1CCCN21 (configuration not stated), the Potency is reported as inactive: > 76.9 µM. With COc1cc(C2=Nc3c(c(C)nn3-c3ccccc3)P(=O)(N3CCOCC3)O2)cc(OC)c1OC (configuration not stated) the Potency was inactive: > 76.9 µM. O=C(COn1nnc2ccc(Cl)cc21)NCc1ccccc1 was tested, and the Potency was inactive: > 76.9 µM. O=c1c2ccccc2nc(COc2ccccc2)n1/N=C/c1ccco1 was tested, and the Potency was inactive: > 76.9 µM. O=C(CSc1ccccc1C(=O)O)Nc1cccc(C(=O)O)c1 was tested, and the Potency was inactive: > 76.9 µM. With O=C(c1ccco1)N1CCN(C(c2ccccn2)c2nnnn2C2CCCC2)CC1 (configuration not stated) the Potency was inactive: > 76.9 µM. With O=C(NC1CCCCCC1)C1CCN(S(=O)(=O)N2CCC3(CC2)OCCO3)CC1 the Potency was inactive: > 76.9 µM. In the case of O=C(Nc1ccc2c(c1)OCO2)NC1CCN(Cc2ccccc2)CC1, the Potency is reported as inactive: > 76.9 µM. For COc1cc(C2C(C(=O)c3ccc(C)o3)=C(O)C(=O)N2c2cc(C)on2)cc(Br)c1O (configuration not stated), the Potency was inactive: > 76.9 µM. O=C(CN1C(=O)C2C3C=CC(C3)C2C1=O)NCCC1=CCCCC1 (configuration not stated) was tested, and the Potency was inactive: > 76.9 µM. O=c1c2ccccc2nc(-c2ccco2)n1Cc1ccccc1 was tested, and the Potency was inactive: > 76.9 µM. O=C(Nc1ccccc1C(=O)NCc1ccc(Cl)cc1)c1ccco1 was tested, and the Potency was inactive: > 76.9 µM. With COc1ccc(CCn2c(-n3nc(C)cc3C)nc3c2c(=O)[nH]c(=O)n3C)cc1 the Potency was inactive: > 76.9 µM.
